Source: the supplement of paper PMC4967469

What was measured:
Experiment in all cases: Viability of human cancer cell lines after 72 h of drug (GDSC screen)
[1] = compound: C/C=C(/C)C(=O)O[C@H]1C(C)=C2[C@H]([C@@H]1OC(=O)CCCCCCC)[C@@](C)(OC(C)=O)C[C@H](OC(=O)CCC)[C@@]1(O)[C@H]2OC(=O)[C@@]1(C)O [Thapsigargin]; settings: top dose 0.512 µM; top dose inferred
Experimental: (§1)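 Human cancer cell lines in 384-well plates, medium with 10% serum, drug for 72 h over a 256-fold dose range (nine 2-fold or five 4-fold steps up to the top dose). Adherent lines were fixed and stained with the nucleic acid dye Syto60, suspension lines read with resazurin; signal relative to control wells, capped at 0 and 100%. One two-parameter sigmoid per drug and line, fitted in a mixed model over all curves with the slope shared within a line.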

[2] = compound: C=CC(=O)Nc1cc(-n2c(=O)ccc3cnc4ccc(-c5cn[nH]c5)cc4c32)ccc1C [QL-X-138]; settings: top dose 10.24 µM; top dose inferred
Experimental: as §1

[3] = compound: CCn1c(-c2nonc2N)nc2cnc(Oc3cccc(NC(=O)c4ccc(OCCN5CCOCC5)cc4)c3)cc21 [GSK269962A]; settings: top dose inferred
Experimental: as §1

[4] = compound: COc1cc(N2CCC(O)CC2)ccc1Nc1cc(Nc2ccccc2S(=O)(=O)C(C)C)c2cc[nH]c2n1 [MPS-1-IN-1]; settings: top dose 20 µM; top dose inferred
Experimental: as §1

[5] = compound: COc1cc(O)c2c(c1)/C=C/C[C@H](O)[C@H](O)C(=O)/C=C\C[C@H](C)OC2=O [(5Z)-7-Oxozeaenol]; settings: top dose 10 µM; top dose inferred
Experimental: as §1

[6] = compound: COc1cc2ncnc(-n3nc(-c4ccccn4)nc3N)c2cc1OC [CP466722]; settings: top dose 16 µM; top dose inferred
Experimental: as §1

[7] = compound: COc1nc(C)cnc1NS(=O)(=O)c1cccnc1-c1ccc(-c2nnco2)cc1 [Zibotentan]; settings: top dose 20 µM; top dose inferred
Experimental: as §1

[8] = compound: C[C@]1(c2nc3c(C(N)=O)cccc3[nH]2)CCCN1 [ABT-888]; settings: top dose 5 µM; top dose inferred
Experimental: as §1

[9] = compound: Cc1ccc(-c2c(C(=O)CCl)n(CCCO)c3ncnc(N)c23)cc1 [CMK]; settings: top dose 4 µM; top dose inferred
Experimental: as §1

[10] = compound: Cc1ccc(F)c(NC(=O)Nc2ccc(-c3cccc4[nH]nc(N)c34)cc2)c1 [ABT-869]; settings: top dose 1.024 µM; top dose inferred
Experimental: as §1

[11] = compound: Cc1cnc(-c2cnc(NCCNc3ccc(C#N)cn3)nc2-c2ccc(Cl)cc2Cl)[nH]1 [CHIR-99021]
Experimental: as §1

[12] = compound: Nc1ccn([C@@H]2O[C@H](CO)[C@@H](O)[C@@H]2O)c(=O)n1 [Cytarabine]; settings: top dose 2 µM
Experimental: as §1

[13] = compound: O=c1cc(-c2cccc3c2Sc2ccccc2S3)oc(N2CCOCC2)c1 [KU-55933]; settings: top dose 10 µM
Experimental: as §1

[14] = top dose 2.5 µM, screen: GDSC drug entry 127
[15] = top dose 5 µM, screen: GDSC drug entry 1192
[16] = top dose 2.56 µM, screen: GDSC drug entry 154
[17] = top dose 10 µM, screen: GDSC drug entry 1241, top dose inferred

Row | Cell Line | AUC [1] | IC50 [1] [µM] | AUC [2] | IC50 [2] [µM] | AUC [3, 14] | IC50 [3, 14] [µM] | AUC [3, 15] | IC50 [3, 15] [µM] | AUC [4] | IC50 [4] [µM] | AUC [5] | IC50 [5] [µM] | AUC [6] | IC50 [6] [µM] | AUC [7] | IC50 [7] [µM] | AUC [8] | IC50 [8] [µM] | AUC [9] | IC50 [9] [µM] | AUC [10] | IC50 [10] [µM] | AUC [11, 16] | IC50 [11, 16] [µM] | AUC [11, 17] | IC50 [11, 17] [µM] | AUC [12] | IC50 [12] [µM] | AUC [13] | IC50 [13] [µM]
1 | ES1 (Ewing sarcoma, adherent) | 0.074 | < 0.002 | 0.351 | 0.249 | 0.913 | > 2.5 | 0.919 | > 5 | 0.598 | 2.3 | 0.72 | 2.6 | 0.674 | 3.03 | 0.985 | > 20 | 0.972 | > 5 | 0.95 | > 4 | 0.985 | > 1.02 | 0.986 | > 2.56 | 0.815 | 5.37 | 0.275 | 0.029 | 0.982 | > 10
2 | ES5 (Ewing sarcoma, adherent) | 0.545 | 0.0433 | 0.44 | 0.429 | 0.922 | > 2.5 | 0.919 | > 5 | 0.554 | 1.8 | 0.752 | 3.75 | 0.697 | 3.93 | 0.982 | > 20 | 0.957 | > 5 | 0.965 | > 4 | 0.979 | > 1.02 | 0.983 | > 2.56 | 0.926 | > 10 | 0.577 | 0.21 | 0.93 | > 10
3 | ES6 (Ewing sarcoma, adherent) | 0.16 | 0.00213 | 0.799 | 6.31 | 0.69 | 0.61 | 0.948 | > 5 | 0.745 | 7.58 | 0.677 | 2.21 | 0.624 | 2.39 | 0.98 | > 20 | 0.982 | > 5 | 0.88 | > 4 | 0.978 | > 1.02 | 0.946 | > 2.56 | 0.886 | > 10 | 0.676 | 0.439 | 0.969 | > 10
4 | ES7 (Ewing sarcoma, adherent) | 0.346 | 0.0118 | 0.374 | 0.285 | 0.887 | > 2.5 | 0.767 | 1.91 | 0.773 | 8 | 0.767 | 3.83 | 0.632 | 2.34 | 0.961 | > 20 | 0.983 | > 5 | 0.919 | > 4 | 0.963 | > 1.02 | 0.98 | > 2.56 | 0.937 | > 10 | 0.621 | 0.271 | 0.887 | > 10
5 | ES-2 (ovary, adherent) | 0.555 | 0.0445 | 0.882 | 8.56 | 0.977 | > 2.5 | 0.955 | > 5 | 0.944 | > 20 | 0.601 | 1.14 | 0.858 | 10.7 | 0.944 | > 20 | 0.985 | > 5 | 0.916 | > 4 | 0.988 | > 1.02 | 0.985 | > 2.56 | 0.988 | > 10 | 0.562 | 0.18 | 0.991 | > 10
6 | ETK-1 (biliary tract, adherent) | 0.191 | 0.00329 | 0.803 | 5.9 | 0.971 | > 2.5 | 0.861 | > 5 | 0.858 | > 20 | 0.801 | 5.64 | 0.905 | > 16 | 0.983 | > 20 | 0.961 | > 5 | 0.875 | > 4 | 0.948 | > 1.02 | 0.982 | > 2.56 | 0.913 | > 10 | 0.82 | 1.35 | 0.976 | > 10
7 | EVSA-T (breast, adherent) | 0.665 | 0.0851 | 0.818 | 4.76 | 0.989 | > 2.5 | 0.93 | > 5 | 0.933 | > 20 | 0.747 | 2.81 | 0.927 | > 16 | 0.991 | > 20 | 0.991 | > 5 | 0.831 | 2.06 | 0.991 | > 1.02 | 0.991 | > 2.56 | 0.987 | > 10 | 0.753 | 0.586 | 0.903 | 9.88
8 | EW-3 (Ewing sarcoma, adherent) | 0.632 | 0.0785 | 0.639 | 1.65 | 0.974 | > 2.5 | 0.963 | > 5 | 0.77 | 8.71 | 0.834 | 7.87 | 0.732 | 5.08 | 0.975 | > 20 | 0.924 | > 5 | 0.962 | > 4 | 0.983 | > 1.02 | 0.982 | > 2.56 | 0.982 | > 10 | 0.659 | 0.37 | 0.983 | > 10
9 | EW-13 (Ewing sarcoma, suspension) | 0.207 | 0.00389 | 0.554 | 0.911 | 0.981 | > 2.5 | 0.98 | > 5 | 0.868 | > 20 | 0.885 | > 10 | 0.685 | 3.5 | 0.985 | > 20 | 0.97 | > 5 | 0.977 | > 4 | 0.986 | > 1.02 | 0.986 | > 2.56 | 0.984 | > 10 | 0.985 | > 2 | 0.985 | > 10
10 | EW-16 (Ewing sarcoma, adherent) | 0.108 | < 0.002 | 0.582 | 1.09 | 0.978 | > 2.5 | 0.881 | > 5 | 0.751 | 6.87 | 0.749 | 3.37 | 0.806 | 8.57 | 0.984 | > 20 | 0.981 | > 5 | 0.858 | 3.52 | 0.983 | > 1.02 | 0.966 | > 2.56 | 0.956 | > 10 | 0.653 | 0.34 | 0.95 | > 10
11 | EW-18 (Ewing sarcoma, suspension) | 0.348 | 0.0117 | 0.483 | 0.573 | 0.903 | > 2.5 | 0.969 | > 5 | 0.606 | 2.49 | 0.838 | 7.42 | 0.618 | 2.16 | 0.959 | > 20 | 0.972 | > 5 | 0.978 | > 4 | 0.962 | > 1.02 | 0.985 | > 2.56 | 0.984 | > 10 | 0.929 | > 2 | 0.897 | > 10
12 | EoL-1-cell (haematopoietic neoplasm, suspension) | 0.376 | 0.0152 | 0.592 | 1.11 | 0.962 | > 2.5 | 0.48 | 0.277 | 0.781 | 7.31 | 0.024 | < 0.0391 | 0.592 | 1.73 | 0.988 | > 20 | 0.976 | > 5 | 0.959 | > 4 | 0.208 | 0.0101 | 0.973 | > 2.56 | 0.959 | > 10 | 0.716 | 0.469 | 0.934 | > 10
13 | Farage (B-cell lymphoma, suspension) | 0.123 | 0.00286 | 0.444 | 0.463 | 0.977 | > 2.5 | 0.984 | > 5 | 0.912 | 19.7 | 0.848 | 5.49 | 0.734 | 3.98 | 0.922 | > 20 | 0.99 | > 5 | 0.768 | 1.25 | 0.993 | > 1.02 | 0.993 | > 2.56 | 0.988 | > 10 | 0.98 | > 2 | 0.976 | > 10
14 | GB-1 (glioma, adherent) | 0.65 | 0.0901 | 0.792 | 5.56 | 0.978 | > 2.5 | 0.847 | 4.71 | 0.799 | 11.7 | 0.712 | 2.8 | 0.744 | 5.75 | 0.931 | > 20 | 0.947 | > 5 | 0.838 | 3.41 | 0.983 | > 1.02 | 0.98 | > 2.56 | 0.979 | > 10 | 0.901 | > 2 | 0.746 | 3.65
15 | GI-ME-N (neuroblastoma, adherent) | 0.352 | 0.0107 | 0.513 | 0.702 | 0.38 | 0.0645 | 0.412 | 0.164 | 0.785 | 12.1 | 0.427 | 0.367 | 0.759 | 7.58 | 0.973 | > 20 | 0.969 | > 5 | 0.784 | 2.38 | 0.933 | > 1.02 | 0.963 | > 2.56 | 0.916 | > 10 | 0.817 | 1.68 | 0.963 | > 10
16 | GOTO (neuroblastoma, adherent) | 0.621 | 0.0724 | 0.634 | 1.58 | 0.96 | > 2.5 | 0.929 | > 5 | 0.886 | > 20 | 0.703 | 2.54 | 0.893 | > 16 | 0.978 | > 20 | 0.984 | > 5 | 0.833 | 3.08 | 0.974 | > 1.02 | 0.983 | > 2.56 | 0.868 | > 10 | 0.683 | 0.439 | 0.88 | > 10
17 | GR-ST (lymphoblastic leukaemia, suspension) | 0.419 | 0.0183 | 0.371 | 0.26 | 0.903 | > 2.5 | 0.809 | 3.3 | 0.79 | 11 | 0.694 | 2.48 | 0.699 | 4.14 | 0.98 | > 20 | 0.978 | > 5 | 0.914 | > 4 | 0.98 | > 1.02 | 0.981 | > 2.56 | 0.897 | > 10 | 0.647 | 0.349 | 0.961 | > 10

The IC50 comes from the fitted curve, where viability falls to half of the control; where the fit passes the top or lowest dose, that dose stands as a limit. For AUC the same curve is integrated over the 256-fold range of doses and scaled to a fraction; values near 1 show little effect. For part of these data: Any top dose called inferred was derived from the fitted curves, not read from the paper. For part of these data: Drugs with an entry number were screened twice under separate entries, and the two screens often disagree.
